# In PubChem BioAssay AID686971 (National Center for Advancing Translational Sciences (NCATS), 2013):
# Values joined by “and” are separate entries in the source; they are usually repeats but may differ in a detail not shown here. Identical values can stand only once. About 7,500 (2.1%) of roughly 360,000 compounds were called active. This list was built around the results that the source calls inconclusive (neither active nor inactive); the mix of calls is not that of the screen. The call rests on the fitted dose curve; in most records, active means well fitted cell-killing curve with a large enough effect; inconclusive means small, poorly fitted or top-dose-only effect, or effect the other way, or another doubt; inactive means no such curve, though single readings can be large or run the other way. Potencies of inconclusive entries are left out as doubtful fits.
# Test: qHTS for induction of synthetic lethality in tumor cells producing 2HG: qHTS for the HT-1080-IDH1KD cell line;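 on activity, negative = toxicity: 0% = DMSO wells and -100% = cell-free medium wells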
# Settings: HT-1080 IDH1 knockdown viability, ATP luminescence, 48 h; activity, negative = toxicity: at 46.1 µM (top of the series) unless noted
# Procedure, shortened: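 HT-1080-IDH1KD cells (IDH1 knocked down), 750/well in RPMI with 5% FBS, treated with compound 48 h at 37 degrees C. Viability by CellTiter-Glo luminescence, normalised to DMSO and no-cell wells; concentration-response curves classed.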
# Potency means the concentration at half of the fitted maximal effect; tags describe the fitted curve by direction and shape.
SMILES,Potency,"activity, negative = toxicity"
Nc1ccccc1SC(C[N+](=O)[O-])c1ccccc1 (configuration not stated),"inconclusive [cytotoxic, single point]",
COc1ccc(NC(=O)C2CCC(CNS(=O)(=O)c3cccs3)CC2)cc1 (configuration not stated),inactive,
CCOC(=O)/C(=N\Nc1ccc(OC)cc1)c1csc(Nc2ccccc2)n1,"inconclusive [cytotoxic, single point]",
CCOC(=O)/C(=N\Nc1ccccc1Cl)N1CCN(Cc2ccccc2)CC1,inactive,
O=C1CCCCN1CCCC(=O)N1CCCC(Nc2ccc(F)c(F)c2)C1 (configuration not stated),inactive,
Cc1c(-c2nc(N)nc(Nc3ccccc3)n2)oc2ccccc12,"inconclusive [cytotoxic, single point]",
CCc1nnc(N2CCN(c3ncnc4c3oc3ccccc34)CC2)s1,"inconclusive [cytotoxic, single point]",
Cc1ccc(CNc2nc(NC(C)C)nc3ccsc23)c(C)c1,"inconclusive [cytotoxic, single point]",
Cc1ccc(CN(C)c2nc(-c3cccnc3)nc3ccccc23)o1,inactive,
Nc1cc(=O)[nH]c(SCCSc2ccccc2)n1,inactive,
COc1ccc(OC)c(C(=O)NC2CCCc3c2cnn3-c2cc(C)cc(C)c2)c1 (configuration not stated),"inconclusive [cytotoxic, partial curve]",
COCOCCn1cc(CN2CCS(=O)(=O)N(Cc3ccc(-c4ccc(Cl)c(Cl)c4)cc3)C(C(C)C)C2=O)nn1 (configuration not stated),"inconclusive [cytotoxic, single point]",
CC(C)(C)CC(C)(C)NCC(O)COCCOc1ccc(Br)cc1 (configuration not stated),active: 20.6 µM,
COc1ccccc1NC(=O)N1CCc2[nH]c3ccc(Cl)cc3c2C1,"inconclusive [cytotoxic, single point]",
Cc1ccc(C2=N/C(=C/c3cccs3)C(=O)N2Nc2ccccc2)cc1,"inconclusive [cytotoxic, single point]",
Cc1cccc(/C=N/NC(=O)c2cc(Br)ccc2OCc2ccccc2)n1,active: 18.4 µM,
COc1cccc(-c2ccc(NC(=O)C3CCCN(Cc4cccc(C)n4)C3)cc2)c1 (configuration not stated),"inconclusive [cytotoxic, single point]",
Cc1ccccc1CN1CCCC(C(=O)Nc2ccc(-c3ccn[nH]3)cc2)C1 (configuration not stated),"inconclusive [cytotoxic, single point]",
Cc1ccc(C(=O)COC(=O)c2ccccc2NC(=O)c2ccccc2)cc1[N+](=O)[O-],inactive,
O=C(Nc1ccc(F)c(Cl)c1)C1Cc2c(-c3cccc(F)c3)ccnc2O1 (configuration not stated),"inconclusive [cytotoxic, single point]",
S=c1nc[nH]c2nc[nH]c12,active: 2.91 µM and active: 1.84 µM,
Cc1nc(N2CCCCC2)c2c(C)c(C(=O)Nc3ccccc3C(F)(F)F)sc2n1,"inconclusive [cytotoxic, single point]",
CCOC(=O)c1[nH]c2ccc(C)cc2c1NC(=O)CN1CCCCC1,inactive,
Cn1c(NCc2cc(Br)ccc2O)nc2ccccc21,"inconclusive [cytotoxic, single point]",

SMILES,Potency,"activity, negative = toxicity"
O=C(Nc1cc(N2CCCCC2)ncn1)c1ccc(F)cc1,inactive,
COc1cccc(OC)c1NC(=O)c1ccc(-c2cc(Cl)ccc2Cl)o1,"inconclusive [cytotoxic, single point]",
O=C(N/N=C/c1ccc([N+](=O)[O-])o1)c1ccc2c(c1)OCO2,"inconclusive [cytotoxic, single point]",
Nc1[nH]c(C(=O)c2ccccc2)c(-c2ccccc2C(F)(F)F)c1C(=O)NCCc1c[nH]c2ccccc12,"inconclusive [cytotoxic, single point]",
O=C(Nc1ccncc1)c1cc(-c2ccccc2)nc2ccccc12,"inconclusive [cytotoxic, single point]",
O=C(CN1c2cccc3cccc(c23)S1(=O)=O)N1CCCCC1,inactive,
c1ccc(-n2nnnc2NCCc2c[nH]c3ccccc23)cc1,inactive,
Cc1cc([N+](=O)[O-])c(C(C)(C)C)cc1N,inactive,
CN(C)CCNC(=O)c1cccc(-c2cnc3c(NC=O)cc(-c4ccccc4F)cn23)c1,"inconclusive [cytotoxic, single point]",
CN1C(=O)c2cccc3c(Br)ccc(c23)C1=O,,inconclusive: 11.2%
N#Cc1ccc(COC(=O)CCc2c[nH]c3ccccc23)cc1,inactive,
COc1ccccc1C(=O)Nn1c(C)nc2ccccc2c1=O,inactive,
CCN(CC)S(=O)(=O)c1cccc(C(=O)N/N=C/c2ccc(O)c(O)c2O)c1,"inconclusive [cytotoxic, partial curve]",
CCCCc1nc(N2CCN(C(=O)c3ccco3)CC2)c(C#N)c2c1CCCC2,"inconclusive [cytotoxic, single point]",
O=C(Cn1cncn1)NCCCc1ccccc1,"inconclusive [cytotoxic, full curve, poor fit]",
CSC1=C(C#N)C(c2ccc(Cl)cc2)C2=C(CC(C)(C)CC2=O)N1 (configuration not stated),active: 8.2 µM,
COc1ccc(C(=O)NNC(=S)NC(=O)C(C)(C)C)cc1,"inconclusive [cytotoxic, partial curve]",
CCCNC(=O)c1cccc(S(=O)(=O)N2CC3(C)CC2CC(C)(C)C3)c1 (configuration not stated),inactive,
Cc1ccc2cc(CN(Cc3ccco3)C(=O)NC3CCCCC3)c(=O)[nH]c2c1C,inactive,
CCCCCCCCN1C(=O)[C@H](CC(=O)NCCc2ccccc2OC)C[C@@]2(C(=O)OC)CC(C)(C)CC=C12,"inconclusive [cytotoxic, single point]",
COc1ccccc1C1CC(c2ccc(Br)cc2)=NN1C(=O)c1cccnc1 (configuration not stated),active: 14.6 µM,
CCOc1ccc(N(CC(=O)NC2CC3CCC2C3)S(=O)(=O)c2ccccc2)cc1 (configuration not stated),inactive,
O=[N+]([O-])c1cc2cccnc2c2ncccc12,"inconclusive [cytotoxic, single point]",
CCC(C)NC(=O)c1ccc2nc(Cc3ccc(OC)cc3)oc2c1 (configuration not stated),inactive,

SMILES,Potency,"activity, negative = toxicity"
CCSc1ccc(-c2cc(NC=O)c3ncc(-c4cccc(C(=O)N(C)C)c4)n3c2)cc1,"inconclusive [cytotoxic, single point]",
CC(C)c1cccc(-c2ccc3c(c2)S(=O)(=O)c2cccc(C(=O)NCc4ccco4)c2C3=O)c1,"inconclusive [cytotoxic, single point]",
O=C(OCc1ccccc1)/C(=C/c1ccc(Cl)cc1)NC(=O)c1ccccc1Cl,"inconclusive [cytotoxic, single point]",
COc1ccc(C(NC(=O)C2CCN(CCCOc3ccccc3)CC2)c2cccs2)cc1 (configuration not stated),"inconclusive [cytotoxic, single point]",
CC(c1cccs1)N(Cc1ccco1)C(=O)Nc1ccc(Cl)c(Cl)c1 (configuration not stated),inactive,
CCn1c(-c2nn(C)cc2Cl)n[nH]c1=S,"inconclusive [rising, single point]",
COc1cccc(CNC(=O)c2c(C)nn(-c3ccccc3)c2C)c1,inactive,
COc1cc(OC)cc(C(=O)NNC(=O)C2CCC2)c1,inactive,
Cc1ccc(C)c(S(=O)(=O)NCc2ccc(C(=O)N3CCC(Cc4ccccc4)CC3)cc2)c1,"inconclusive [cytotoxic, single point]",
COC(=O)c1c(NS(=O)(=O)c2ccc(C)cc2)sc2c1CCC(C)C2 (configuration not stated),"inconclusive [cytotoxic, single point]",
COc1cccc(NC(=O)CSc2nnc(CNC(=O)c3ccccc3F)o2)c1,"inconclusive [cytotoxic, single point]",
NS(=O)(=O)c1ccc(NC(=O)c2ccc3c(c2)CCN3S(=O)(=O)c2ccccc2)cc1,"inconclusive [cytotoxic, partial curve]",
COc1cc(C2c3cc4c(cc3C(OC3OC5COC(c6cccs6)OC5C(O)C3O)C3COC(=O)C23)OCO4)cc(OC)c1O (configuration not stated),"inconclusive [cytotoxic, partial curve, poor fit]",
Cc1ccc(-c2nc3ccccc3o2)cc1NC(=S)NC(=O)c1cc2ccccc2o1,"inconclusive [cytotoxic, full curve, poor fit]",
CSc1nnc(NC(=O)c2nc(S(=O)(=O)Cc3ccccc3)ncc2Cl)s1,active: 23.1 µM,
Cc1cccc(-c2ccc3[nH]c4c(c3c2)CCN2C[C@H]3[C@H](C)ON(C)[C@H]3C[C@@H]42)c1,"inconclusive [cytotoxic, single point]",
CCC(CC)c1nnc(NC(=O)CCc2ccccc2OC)s1,inactive,
Cc1ccnc(NC(=O)c2cccc(NC(=O)Cc3ccccc3)c2)c1,"inconclusive [cytotoxic, single point]",
COc1cccc(C(=O)Nc2ccc3c(cc2=O)[C@@H](NC(C)=O)CCc2cc(OC)c(OC)c(OC)c2-3)c1,active: 4.61 µM,
O=C(O)COc1ccccc1/C=N/NC(=O)CSc1nnc(SCc2ccc(Cl)cc2)s1,inactive,
COc1ccc(NC(=O)CCC(=O)c2cccs2)cc1S(=O)(=O)Nc1ccc(Cl)cc1,active: 0.82 µM,
O=Cc1sc([O-])nc1-[n+]1ccc2ccccc2c1,inactive,
C#CCn1c(S(=O)(=O)Cc2ccc(F)cc2)nc(-c2ccccc2)c1-c1ccccc1,active: 1.41 µM,
CCC1(c2ccccc2)NC(=O)N(CC(=O)Nc2ccc(Cl)c(S(=O)(=O)N3CCCCC3)c2)C1=O (configuration not stated),"inconclusive [cytotoxic, single point]",
